Results on 110 compounds are retold here after PubChem BioAssay AID488969 (Vanderbilt High Throughput Screening Facility, 2010).

Over roughly 110,000 compounds, “z-score” has its median near -0.1; the highest 2% begin near 2. This is one part of the list.

The target of this assay is Metabotropic glutamate receptor 8 (Rattus norvegicus) (UniProt P70579). The assay is described as follows: mGluR8 Gi/Go-coupled signaling modulation – cell-based, rat, thallium flux, HTS, primary screen (AID 488969). Particulars: HEK293 rat mGluR8, GIRK (G protein-gated inwardly rectifying potassium channel) thallium flux, FluoZin2; at 10 µM; stronger effect = higher value; submaximal glutamate (EC20) added with thallium.
Chain of UniProt P70579 (P70579 whole entry, looked up): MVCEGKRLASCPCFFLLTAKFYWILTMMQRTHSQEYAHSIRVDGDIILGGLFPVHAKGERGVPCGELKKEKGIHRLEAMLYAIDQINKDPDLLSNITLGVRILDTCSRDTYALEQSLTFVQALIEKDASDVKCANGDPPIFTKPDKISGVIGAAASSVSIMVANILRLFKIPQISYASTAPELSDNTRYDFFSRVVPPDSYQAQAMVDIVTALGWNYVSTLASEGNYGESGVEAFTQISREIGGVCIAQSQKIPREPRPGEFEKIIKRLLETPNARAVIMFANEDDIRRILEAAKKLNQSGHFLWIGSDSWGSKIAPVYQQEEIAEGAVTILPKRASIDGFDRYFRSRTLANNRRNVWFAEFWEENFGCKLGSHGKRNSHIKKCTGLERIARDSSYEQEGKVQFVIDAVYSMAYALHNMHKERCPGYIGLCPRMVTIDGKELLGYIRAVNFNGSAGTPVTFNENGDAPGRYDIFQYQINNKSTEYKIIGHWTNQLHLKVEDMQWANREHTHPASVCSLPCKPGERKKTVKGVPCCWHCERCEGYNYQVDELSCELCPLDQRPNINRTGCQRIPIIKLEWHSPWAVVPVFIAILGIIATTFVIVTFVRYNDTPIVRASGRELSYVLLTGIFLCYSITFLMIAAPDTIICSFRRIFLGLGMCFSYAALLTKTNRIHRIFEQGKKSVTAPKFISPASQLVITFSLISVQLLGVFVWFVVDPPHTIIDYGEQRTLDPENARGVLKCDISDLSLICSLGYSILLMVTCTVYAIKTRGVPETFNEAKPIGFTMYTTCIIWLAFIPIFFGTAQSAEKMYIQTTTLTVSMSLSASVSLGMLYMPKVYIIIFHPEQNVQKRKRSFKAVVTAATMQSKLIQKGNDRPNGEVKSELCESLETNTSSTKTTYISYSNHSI
`COc1cc(C(=S)N2CCCC2)ccc1OC(=O)c1ccc(Cl)cc1[N+](=O)[O-]` showed a z-score of -0.375.
Then `CC1Cc2ccccc2N1C(=O)c1ccnc(C(C)(C)C)c1` (stereo not given), with 0.419; and `CC(C)Nc1nnc(SCC(=O)c2c[nH]c3ccccc23)s1`, with -0.322; and `CCN(CC)c1ccc(NC(=O)CC2Oc3ccccc3NC2=O)c(C)c1` (stereo not given), with 0.762.
Then `COc1ccc(-c2c(C(C)=O)c(C)nc3sc4c(c23)NC(c2ccccc2)NC4=O)cc1` (stereo not given), with 0.104.
Then `Cc1c(Cl)cnc(NC(=O)COC(=O)c2cccc(S(=O)(=O)N3c4ccccc4CC3C)c2)c1Cl` (stereo not given), with -0.169; and `COc1ccc(NC(=O)/C(Cl)=C(/Cl)S(=O)Cc2ccccc2)cn1` (stereo not given), with -0.92; and `CCOc1nc(NCCC2=CCCCC2)nc(N2CCOCC2)n1`, with 0.212.
On to `c1ccc(CCn2c3ccccc3c3nnc(SCc4ccc5nonc5c4)nc32)cc1`, for which the z-score was -0.0123.
The value for `Cc1nn(-c2ccccc2)c(Cl)c1/C=N/NC(=O)C1COc2ccccc2O1` (stereo not given) was -0.169.
`COCCNc1nc(CSc2ccccc2)nc2sc(C)c(C)c12` returned a z-score of 0.592.
The value for `COc1ccc(NC(=O)CCCN2C(=O)CCC2=O)cc1Cl` was 0.138; that for `CC(C)C12CN3CC(C(C)C)(CN(C1)C3c1ccc3c(c1)OCO3)C2=O` (stereo not given) was -0.124; that for `COc1ccccc1NC(=S)NC(=O)C(C)C` was 0.0391.
Then `Cc1ccc(C2NC(=O)c3c(sc(C)c3C)N2)c(O)c1` (stereo not given), with -0.278.
The value for `Cc1cc(=O)oc(C)c1C(=O)NCCNC(=O)c1c(C)cc(=O)oc1C` was -0.13; that for `CCCCC(=O)N/N=C/c1sccc1C` was -0.294; that for `COc1cc(/C=N/Nc2nc3ccccc3[nH]2)ccc1O` was -0.253.
`Cc1c(C(=O)Nc2ccc(Cl)cc2)c2ccccn2c1C(=O)c1ccccc1` came in with a z-score of 0.641.
Then `O=C(Nc1nnc(SCC(=O)N2CCOCC2)s1)c1ccccc1Cl`, with -0.28; and `O=C(Nc1ccccc1-c1ccccc1)c1ccc(Br)o1`, with -0.753; and `O=C(N/N=C/c1cccnc1)C1CCCN(S(=O)(=O)c2ccccc2)C1` (stereo not given), with 0.0205.
For `COc1cc(C(c2c(C)[nH][nH]c2=O)c2c(C)[nH][nH]c2=O)ccc1OS(=O)(=O)c1ccccc1`, the z-score worked out at 0.0965.
The value for `O=C(CCC(=O)OCC(=O)c1ccccc1)Nc1cccc2cccnc12` was -0.0155; that for `Cc1nc(NC(=O)c2ccc(Cl)cc2)sc1Cc1ccc2c(c1)OCO2` was 0.784.
The value for `COc1ccc(OC)c(/C=N/NC(=O)c2cc[n+](CC(=O)c3ccccc3)cc2)c1` was 0.822.
Turning to `Cc1ccc(CNS(=O)(=O)c2ccc3c(c2)OCCO3)cc1`, the z-score was -0.463.
Take `O=C(Nc1cc(Cl)ccc1O)c1snnc1-c1ccccc1`: the z-score was -0.446.
The value for `COc1ccc(C(=O)c2cc([N+](=O)[O-])ccc2N2CCCC2)cc1` was -0.381.
Then `CCN1C(=O)C(O)(C2COC(C)(C)CC2=O)c2ccccc21` (stereo not given), with -0.866; and `Cc1cc2c(s1)c1cnn(Cc3ccccc3F)c(=O)c1n2C`, with 0.537; and `Cc1ccc(C(CC(=O)N2CCOCC2)c2ccco2)cc1` (stereo not given), with -0.0603.
The value for `CCCNC(=O)c1cc2ccccc2c(=O)o1` was 0.043; that for `Oc1ccccc1CNCCCNCc1ccccc1O` was -0.153.
The compound `CC1(C)SC(=S)N(/N=C/c2ccc(O)cc2)C1N(O)C(=O)Nc1ccc([N+](=O)[O-])cc1` (stereo not given) displayed a z-score of 0.135.
Then `COCC(=O)Nc1ccccc1Br`, with 0.0935; and `CC1=C(C(=O)NCc2ccccc2)C(c2cccs2)n2ncnc2N1` (stereo not given), with -0.404; and `COc1ccc(S(=O)(=O)Nc2ccc(N(C)C(C)=O)cc2)cc1`, with -0.379.
The value for `Cc1cccc(-n2ncc3c(NCc4ccccn4)ncnc32)c1` was -0.229.
Then `CC1(C)Cc2nc3sc(C(=O)NCCO)c(N)c3cc2CO1`, with 0.0334; and `CCOC(=O)C1=NNC2C(=O)N(C3CCCCC3)C(=O)C12` (stereo not given), with 0.0294; and `COc1cccc(CNCCc2c[nH]c3ccccc23)c1OCc1ccccc1F`, with 0.89.
`CCN(CC)S(=O)(=O)c1cccc(C(=O)Nc2cccnc2)c1` came in with a z-score of -0.0652.
Then `CC(/C=N/n1c(-c2ccc(C)cc2)n[nH]c1=S)=C\c1ccco1`, with 0.323.
Then `O=C1O/C(=C/C(=O)N2CCOCC2)c2ccccc21`, with -0.258; and `O=C(NNC(=O)C1CC(c2cccnc2)=NO1)Nc1cccc(F)c1` (stereo not given), with 0.509.
The value for `CCOC(=O)C1CCc2nc3ccccc3c(=O)n21` (stereo not given) was 0.125.
With `Cc1ccc(-c2cc(C(=O)O)c3cc(Br)ccc3n2)o1`, the z-score was -0.276.
In the case of `O=S(=O)(Nc1ccc(S(=O)(=O)N2CCCCC2)cc1)c1ccc(Br)s1`, the z-score was -1.33.
The value for `Cc1cccc(CCNS(=O)(=O)c2ccc(S(=O)(=O)N3CCC(C)CC3)cc2)c1` was 0.0452; that for `N#CC1=C(S)N(c2ccccc2)C(c2ccc(-c3cc(Cl)ccc3Cl)o2)NC1=O` (stereo not given) was -0.413.
The value for `COC(=O)c1ccc(NC(=O)CN(Cc2ccc(Cl)cc2)S(C)(=O)=O)cc1` was 0.32.
Then `Cn1nnc(NC(=O)c2ccc(C(C)(C)C)cc2)n1`, with -1.22; and `CC(=O)Nc1nc(C)c(Oc2ccc(Cl)cc2Cl)c(=O)[nH]1`, with -0.149; and `CCC(C)(C)NC(=O)C(c1ccc(C)cc1)N(CC1CCCO1)C(=O)CNC(=O)c1cccs1` (stereo not given), with -0.118.
`COc1ccc(NC2=C(C(C)=O)C(c3ccc4c(c3)OCO4)C(C(C)=O)C(C)(O)C2)cc1` (stereo not given) registered a z-score of -0.297.
The value for `CSC1=N/C(=C\c2cccc(F)c2)C(=O)S1` was -0.705.
The value for `COC(=O)c1ccccc1NC(=O)Nc1cccnc1` was 0.0538; that for `Cc1ccc(C(=O)NCCc2nnc3ccc(SCC(=O)Nc4ccc(C)cc4C)nn23)cc1` was 0.231; that for `CCCOc1ccc(C(=O)Nc2cc(-c3nn4c(C)nnc4s3)ccc2C)cc1` was -0.185.
For the compound `OCCN(CCO)Cc1csc2ccccc12`, the z-score is -0.134.
The value for `OCCN1CCN(C(=S)c2ccc(Br)cc2)CC1` was -0.129.
The value for `CC(=O)N1C(C(=O)O)CSC1c1cccc(C)c1` (stereo not given) was -0.158; that for `Clc1ccc(SCc2cc(Cl)nc(-c3ccccc3)n2)cc1` was 0.0736; that for `CC1=C(C(=O)Nc2ccc(C)cc2)C(c2cccs2)NC(=S)N1` (stereo not given) was -0.316.
The value for `Cn1c(NC(=O)c2ccc(Cl)cc2Cl)cc(=O)n(C)c1=O` was -0.291.
Turning to `Cc1nc2ccccc2c(=O)n1NCc1cc(Br)cs1`, the z-score was -0.577.
The value for `CCn1c2ccc(F)cc2c2nnc(NN)nc21` was -0.0973; that for `COC(=O)c1c(NC(=O)c2ccoc2C)sc2c1CCC2` was -0.362.
The value for `O=C(N1CCOCC1)N1CCN(C(=O)N2CCOCC2)CC1` was -0.108; that for `CCc1ccc(C(CC(=O)c2ccc(Cl)cc2)C(=O)O)cc1` (stereo not given) was -0.0449; that for `CCN1CC2=C(OC(N)=C(C#N)C2c2cccs2)/C(=C/c2cccs2)C1` (stereo not given) was -0.471.
Then `C=CCn1c(N)c(C(=O)N2CCN(C)CC2)sc1=S`, with 0.461; and `Cc1cccc(N=C2NN=C(c3c[nH]c4ccccc34)CS2)c1`, with 0.583.
In the case of `Cc1cccc(NC(=O)CN2C(=O)S/C(=C\c3cc(C)n(C)c3C)C2=O)c1`, the z-score came to 0.326.
The value for `CCOC(=O)c1c(C)[nH]c(C(=O)/C(C#N)=C/c2ccc(OC)c(OC)c2)c1C` was -0.195; that for `COc1ccc(S(=O)(=O)NCc2ccc(C(=O)N3CCN(c4ccccn4)CC3)cc2)cc1` was -0.536; that for `COc1cc(/C=N\N=C2/SC(CC(=O)O)C(=O)N2c2ccc(O)cc2)ccc1O` (stereo not given) was -0.0934.
Then `Cn1c(=O)[nH]c(=O)c2c1nc(N1CCN(CCO)CC1)n2CCSc1nc2ccccc2s1`, with -0.355.
`Cc1ccc(-n2nc(C(=O)NCc3ccc(C)o3)c3c4ccccc4n(C)c3c2=O)cc1` registered a z-score of -0.398.
For the compound `O=C(CCNc1ccc(F)cc1)c1ccco1`, the z-score is -0.0171.
Regarding `CN(C)c1cccc(C(=O)OCC(=O)Nc2ccccc2-c2ccccc2)c1`, the z-score was -0.796.
Then `CCN(CC)CCCNC(=O)C1CCC(=O)N(c2ccc(OC)cc2)C1c1ccc(F)cc1` (stereo not given), with -0.129; and `O=C(CCc1ccccc1)Nc1ccccc1C(=O)NCc1ccco1`, with -0.244.
The value for `O=C(Cn1nnc(-c2ccc3c(c2)OCO3)n1)NCc1ccco1` was -0.0217; that for `O=C(NCCN1C(=O)S/C(=C\c2ccc(Cl)c(Cl)c2)C1=O)c1cnccn1` was -0.143.
The value for `COC(=O)c1ccc(C(=O)OC)c(NC(=O)CSc2cccc[n+]2[O-])c1` was 0.589; that for `CC(=O)c1cccc(NC(=O)NCc2ccccn2)c1` was -0.613.
For the compound `Cc1ccc(O)c(NC(=O)C2CC(c3c(F)cccc3Cl)=NO2)c1` (stereo not given), the z-score is -0.208.
The value for `CC(=O)C1=C(C)Nc2ncnn2C1c1ccccc1OCc1ccccc1` (stereo not given) was -1.37.
In the case of `c1ccc2sc(NC3=NCN(C4CCCCCC4)CN3)nc2c1`, the z-score came out at 0.189.
Regarding `O=C(Nc1ccc(S(=O)(=O)Nc2nccc(C3Cc4ccccc4C(=O)O3)n2)cc1)c1ccccc1` (stereo not given), the z-score amounted to 0.132.
On to `Nc1c(S(=O)(=O)c2ccccc2)c2nc3ccccc3nc2n1/N=C/c1cccc(O)c1`, for which the z-score is -0.348.
The value for `COc1ccc2c(c1)OCC1=C2CCC2(C)C(=O)CC=C12` (stereo not given) was -0.184; that for `Cc1ccc2cc(S(=O)(=O)NCCCC(=O)O)ccc2c1` was -0.0725.
The value for `Cc1ccc(C)c(N(C(=O)Cn2nnc3ccccc32)C(C(=O)NC(C)(C)C)c2ccsc2)c1` (stereo not given) was -0.191; that for `O=C1/C(=C\c2ccccc2)CCc2c1[nH]c1ccccc21` was -0.164; that for `CN(C)CCCN1C(=O)C(=O)/C(=C(/O)c2ccc3c(c2)OCO3)C1c1cccnc1` (stereo not given) was -0.332.
The value for `CCCCNC(=O)c1onc(CSc2cccc3ccccc23)c1C(=O)O` was -0.637; that for `CC1CCCCN1C(=O)Cn1cc(/C=C2/C(=O)Nc3ccccc32)c2ccccc21` (stereo not given) was 0.354; that for `C/C(=C\c1ccccc1)CN1CCN(c2ccccc2)CC1` was 0.338.
`CCOc1ccc(C(=O)c2nc3c(n2O)CCCC3)cc1` showed a z-score of 0.0791.
The value for `O=C(c1cccs1)N(Cc1ccco1)C1CCS(=O)(=O)C1` (stereo not given) was 0.102.
Then `CCCOC(=O)c1ccc(NC(=O)CSC2=Nc3ccccc3C3CC=NN23)cc1` (stereo not given), with -0.315; and `Cc1cccc[n+]1CC(=O)Nc1ccc([N+](=O)[O-])cc1Cl`, with 0.0506.
The value for `Clc1ccc(OCCCN2CCCCC2)c(Br)c1` was 0.275; that for `CCOC(=O)c1cnc2cc3c(cn2c1=O)CCCC3` was 0.699.
For the compound `Cn1nc(C(F)(F)F)c(C#N)c1N1CCN(c2ccccc2F)CC1`, the z-score came to 0.012.
Take `CCn1cc(/C=N/N=C2\CCC3C4CCc5cc(O)ccc5C4CC[C@]23C)c(C)n1` (stereo not given in full): the z-score amounted to 0.315.
Then `CCN(CC)c1ccc2cc(-c3nnc(-c4ccccc4)o3)c(=O)oc2c1`, with 2.42.
